Measured values taken from PubChem BioAssay AID488969 (Vanderbilt High Throughput Screening Facility, 2010).
Whole data set: some 110,000 compounds, median “z-score” near -0.1, cut for the highest 2% near 2. Some of the results follow. Active and inactive are the calls of the source.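 How the source made its calls: active means z-score in the third read window above 3 or below -3; inactive means the rest.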

target: Metabotropic glutamate receptor 8 (Rattus norvegicus) (UniProt P70579); assay: rat mGluR8 modulators via GIRK flux, primary screen, cell-based, thallium flux, HTS (AID 488969); conditions: HEK293 rat mGluR8, GIRK (G protein-gated inwardly rectifying potassium channel) thallium flux, FluoZin2; at 10 µM; stronger effect = higher value; submaximal glutamate (EC20) added with thallium
UniProt P70579, sequence (P70579 whole entry, looked up): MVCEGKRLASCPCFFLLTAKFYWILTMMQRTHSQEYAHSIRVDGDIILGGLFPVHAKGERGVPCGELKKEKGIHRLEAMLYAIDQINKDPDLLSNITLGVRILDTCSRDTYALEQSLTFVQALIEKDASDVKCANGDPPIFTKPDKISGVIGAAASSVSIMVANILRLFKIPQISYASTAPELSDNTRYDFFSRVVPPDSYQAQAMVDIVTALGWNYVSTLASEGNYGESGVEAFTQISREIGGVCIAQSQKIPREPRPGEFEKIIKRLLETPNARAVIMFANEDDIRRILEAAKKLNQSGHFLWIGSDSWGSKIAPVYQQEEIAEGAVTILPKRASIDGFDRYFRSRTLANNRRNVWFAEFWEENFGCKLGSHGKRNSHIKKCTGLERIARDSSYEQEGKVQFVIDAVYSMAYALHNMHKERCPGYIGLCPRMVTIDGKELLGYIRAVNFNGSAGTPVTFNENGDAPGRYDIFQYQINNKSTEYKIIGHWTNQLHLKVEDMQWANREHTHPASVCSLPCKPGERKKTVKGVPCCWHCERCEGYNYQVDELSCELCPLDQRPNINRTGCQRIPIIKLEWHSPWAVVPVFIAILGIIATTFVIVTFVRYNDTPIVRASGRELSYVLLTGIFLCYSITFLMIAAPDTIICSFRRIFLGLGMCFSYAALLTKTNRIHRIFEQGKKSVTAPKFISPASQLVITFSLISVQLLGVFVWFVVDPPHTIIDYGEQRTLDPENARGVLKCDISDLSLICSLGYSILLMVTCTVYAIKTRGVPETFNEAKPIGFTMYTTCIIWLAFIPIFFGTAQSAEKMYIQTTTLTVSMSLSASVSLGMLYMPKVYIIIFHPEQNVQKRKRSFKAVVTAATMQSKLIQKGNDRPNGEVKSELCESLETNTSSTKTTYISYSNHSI

Row | Structure (SMILES) | z-score
1 | CCC1(C(=O)O)NC(c2cc(OC)ccc2O)C2C(=O)N(Cc3ccccc3)C(=O)C21 (centres undefined) | 1.21
2 | Cc1cc(C)c(C#N)c(SCC(=O)NC2CC2)n1 | -0.163
3 | CC1CCCCN1c1cc(C#N)c(C#N)cc1[N+](=O)[O-] (centres undefined) | 0.23
4 | Cc1ccccc1C(=O)N1CCc2cc(-c3nc(NC(=O)Cc4ccc5c(c4)OCO5)sc3C)ccc21 | -0.101
5 | CCOC(=O)C1CCCN(Cc2nc(N)nc(Nc3ccc(OC)cc3)n2)C1 (centres undefined) | 0.0187
6 | CCOC(=O)C1CCN(S(=O)(=O)c2ccc(-c3nc4ccccc4s3)s2)CC1 | 0.833
7 | O=C(NNC(=S)Nc1ccc(Cl)cc1Cl)c1ccc(N2CCOCC2)c([N+](=O)[O-])c1 | 0.0331
8 | O=C(CSc1cn(CCNC(=O)c2ccc3ccccc3c2)c2ccccc12)NCc1ccco1 | 0.305
9 | O=C(Nc1ccc2c(c1)OCO2)c1cccc(F)c1 | -0.0537
10 | O=S(=O)(c1ccccc1)N1CCN(c2nnnn2-c2ccccc2)CC1 | -0.524
11 | CC(=O)NCc1cn2c(C)csc2n1 | 0.79
12 | O=C1CCCN1C(=O)CCC(=O)N1CCCC1=O | 0.606
13 | O=[N+]([O-])c1ccc(-c2nnc(CSc3nc(-c4ccccc4)nc4ccc(F)cc34)o2)cc1 | 0.0904
14 | COc1cc(OC)cc(-c2nnc(SCC(=O)NCc3cccs3)o2)c1 | -0.202
15 | COc1ccc(NS(=O)(=O)c2ccc(N3CCOCC3)c(NC(=O)c3ccc(OC)cc3)c2)cc1 | -0.352
16 | Cc1cc2ccccc2n2c(SCC(=O)N3CCc4ccccc4C3)nnc12 | 0.115
17 | O=C(CN1CCCCC1)Nc1cccc(-n2cnnn2)c1 | 1.36
18 | COc1ccc(OCc2nnc(SCC(N)=O)n2N)cc1 | -0.141
19 | COc1ccccc1Cn1c(CCCO)nc2ccccc21 | 0.503
20 | O=C(CCSc1ccccc1)NCc1cccnc1 | -0.109
21 | COc1ccc(/C=N/Nc2nc3ccccc3o2)cc1OC | -0.0972
22 | CCn1cc(CNC(=O)c2ccc(Cl)c([N+](=O)[O-])c2)c(C)n1 | -0.0712

Row | Structure (SMILES) | z-score
23 | C=CCNc1nc(N)c(C(=O)Nc2cc(C)on2)s1 | 0.122
24 | COc1ccc(Cn2c(C)c(C)c(C#N)c2NC(=O)Nc2cccc(C)c2)cc1 | -0.0908
25 | Cc1ccc(SCCN2C(=O)NC(C)(C)C2=O)cc1 | 0.0729
26 | O=C(Nc1nc2ccc(S(=O)(=O)N3CCCCC3)cc2s1)c1ccncc1 | 0.331
27 | COc1ccc2cc(CN(CC3COCCO3)S(=O)(=O)c3c(C)cc(C)cc3C)c(=O)[nH]c2c1 (centres undefined) | -0.447
28 | CCOc1ccc(NS(=O)(=O)c2cc(OC)ccc2OC)cc1 | -0.0217
29 | Cc1nn(CCOc2ccccc2)c(=O)n1-c1ccc(F)cc1 | 0.0778
30 | CCOc1ccc(C(C)=O)cc1N1C(=O)C2C(C1=O)C1C=CC2C12CC2 (centres undefined) | active: 4.92
31 | Cn1nc(C(F)(F)F)c(/C=N/OC(=O)c2ccccc2Cl)c1SCc1ccc(Cl)cc1 | -0.0559
32 | Cc1nc(C(F)(F)F)nc(Nc2ccc(Br)cc2)c1C#N | -0.188
33 | OCc1ccc(O)c2ncccc12 | 0.138
34 | CCOC(=O)Nc1ccc2c(c1)ncn2C1CCCCC1 | -0.15
35 | CCOC(=O)c1cc2ccc3ccccc3c2s1 | -0.181
36 | CC(=O)Nc1cc(-c2ccccc2)nn1Cc1ccc(Cl)cc1 | -0.00476
37 | Cc1c(NC(=O)C(C)OC(=O)c2sc3ccccc3c2Cl)c(=O)n(-c2ccccc2)n1C (centres undefined) | -0.273
38 | COc1ccc(CNC(=O)CSc2ccc(Br)cc2)cc1OC | 0.192
39 | CC(=O)NC(CCS(C)(=O)=O)C(=O)Nc1cccc(C)c1C (centres undefined) | -0.236
40 | C=CCn1c(C)cc(C(=O)COC(=O)[C@@H](NC(=O)c2ccccc2Cl)C(C)C)c1C | -0.72
41 | CCCS(=O)(=O)N1CCCC(C(=O)NC2CCCCC2)C1 (centres undefined) | 0.0604
42 | COc1ccc(C(C(C(=O)c2cccs2)N2CCOCC2)N2CCOCC2)cc1OC (centres undefined) | 0.692
43 | O=C(/C=C/c1cccc([N+](=O)[O-])c1)NCCN1CCOCC1 | -0.0971
44 | Clc1cccc(Cl)c1-c1nnc2cccc(Cl)n12 | -0.269

Row | Structure (SMILES) | z-score
45 | CCCCOc1c(Cl)cc(CNC(C)(C)CO)cc1OCC | 0.55
46 | c1csc(-c2cnc3n2CCCC3)c1 | 0.383
47 | Nc1nc(NC(=O)c2ccc(Cl)cc2)nn1-c1ccccc1 | 0.108
48 | C/C(=N\NC(=O)c1ccccc1C)c1ccc(NC(=O)c2cccs2)cc1 | -0.494
49 | Cc1ccc(/C=C/C(=O)Nc2sc3c(c2C#N)CCCC3)o1 | -0.479
50 | COc1ccc(N=C2S/C(=C\c3ccco3)C(=O)N2CC(C)C)cc1 | 0.317
51 | CN(C1=C(N2CCOCC2)C(=O)c2ccccc2C1=O)c1ccccc1 | -0.245
52 | Cc1ccc2[nH]c(=O)c3cc(C(=O)N(C)Cc4ccco4)sc3c2c1 | -0.199
53 | CC(C)(C)c1ccc(-c2cc(C(=O)NNC(=O)Nc3ccccc3)c3ccccc3n2)cc1 | -0.224
54 | Cc1[nH][nH]c(=O)c1C(c1c(C)[nH][nH]c1=O)c1cn(Cc2cccc3ccccc23)c2ccccc12 | -0.435
55 | CC(=O)c1c(C)[nH]c(C(=O)OCC(=O)Nc2ccc(C)cc2[N+](=O)[O-])c1C | -0.12
56 | COc1ccc(CCNC(=O)C2CCN(S(C)(=O)=O)CC2)cc1 | 0.184
57 | CCOc1ccc(CCNS(=O)(=O)c2cccc3nsnc23)cc1OCC | -0.446
58 | COc1ccc(-n2cccc2C=O)cc1 | -0.00429
59 | CC1=CC(C)(C)N(C(=O)CSc2ncn[nH]2)c2ccccc21 | -0.118
60 | Cc1nn(Cc2ccccc2Cl)c(Cl)c1/C=C/C(=O)OCC(=O)NC(N)=O | -0.165
61 | O=C(OCc1nnc(-c2ccccc2)o1)c1ccc(S(=O)(=O)NCc2ccco2)cc1 | -0.0322
62 | Cc1nc(CC(=O)Nc2nc(C(C)(C)C)cs2)cs1 | 0.603
63 | CC(C)COC(=O)Cc1c(O)c2ccccc2[nH]c1=O | -0.0593
64 | COc1ccc(C2NC(=O)c3ccccc3O2)c(OC)c1OC (centres undefined) | 0.587
65 | CCc1nnc(NC(=O)CSc2nc3c(cc2C#N)CCCC3)s1 | 0.0301
66 | CCCNC(=O)CN(c1ccccc1)S(=O)(=O)c1ccc(OC)c(OC)c1 | -0.0477

Row | Structure (SMILES) | z-score
67 | O=C(Cc1csc(-c2ccccc2)n1)NCc1ccccc1F | -0.471
68 | COC(=O)c1c(NC(=O)c2ccc(C)c(S(=O)(=O)Nc3ccccc3C)c2)sc2c1CCCC2 | 0.697
69 | c1ccc(Cn2nnnc2C(c2cccnc2)N2CCN(C3CCCCC3)CC2)cc1 (centres undefined) | -0.537
70 | CCCCCCCC(=O)NNC(=O)c1ccc(F)cc1 | -0.223
71 | C=CC(=O)NC(NC(=O)C=C)c1ccc(Br)cc1 | -0.201
72 | COCCN(C(=O)Cc1cccs1)c1nnc(-c2cccnc2)s1 | -0.159
73 | COc1ccc(OCCCC(=O)Nc2ccc3c(c2)OCCO3)cc1 | -0.179
74 | COc1ccc(S(=O)(=O)NCCc2csc(C)n2)cc1C | -0.522
75 | Cc1cc(C)nc(Nc2n[nH]c(-c3ccccc3Br)n2)n1 | -0.844
76 | Fc1cc(Br)ccc1NC(=S)Nc1ccccc1 | 0.843
77 | CO/N=C(/c1nonc1N)N1CCN(c2ccc([N+](=O)[O-])cc2)CC1 | 0.181
78 | Cc1ccc(N2C(=O)CCSC23C(=O)Nc2ccccc23)cc1 (centres undefined) | -0.0429
79 | COc1ccc(C2C(C#N)=C(N)Oc3cc(C)n(Cc4ccco4)c(=O)c32)cc1 (centres undefined) | -0.427
80 | Cc1cc(C)n(CCc2nc(-c3ccc(C)o3)cs2)n1 | 0.0644
81 | CN(C)S(=O)(=O)c1ccc(Oc2ccc(S(=O)(=O)N(C)C)cc2)cc1 | -0.0806
82 | CCOc1ccc(CNC(=O)C2CCN(S(=O)(=O)CC)CC2)cc1OC | 0.0245
83 | CCOC(=O)C(NC(C)=O)C(OC(C)=O)c1cccc([N+](=O)[O-])c1 (centres undefined) | -0.158
84 | Cc1ccc(NS(=O)(=O)c2ccc(NS(=O)(=O)c3cccs3)cc2)cc1 | -0.416
85 | Cn1c(=O)c2c(nc(CN3CCN(c4ccccc4)CC3)n2CCCc2ccccc2)n(C)c1=O | -0.313
86 | O=C(c1ccc2c(c1)OCO2)N(CC1CCCO1)C1(C(=O)NC2CCCCC2)CCCCC1 (centres undefined) | 0.662
87 | O=C(Cn1cnc2ccccc2c1=O)NC1CCCc2ccccc21 (centres undefined) | 0.244
88 | O=C(c1ccccc1NS(=O)(=O)c1cccc([N+](=O)[O-])c1)N1CCOCC1 | -0.138

Row | Structure (SMILES) | z-score
89 | COc1ccc(-c2oc(NC(=O)CCl)c(C#N)c2-c2ccc(OC)cc2)cc1 | -0.419
90 | Cc1c(C(c2cccc([N+](=O)[O-])c2O)c2c(C)n(C)n(-c3ccccc3)c2=O)c(=O)n(-c2ccccc2)n1C | -0.0431
91 | Cc1cc(C(=O)Nc2cccc(O)c2)co1 | 0.113
92 | O=C(CN(c1ccc(F)cc1)S(=O)(=O)c1ccc2c(c1)OCCO2)Nc1ccc2c(c1)OCO2 | 0.148
93 | COc1ccccc1NS(=O)(=O)c1cc([N+](=O)[O-])ccc1N/N=C/c1c(C)[nH]c2ccccc12 | 0.13
94 | CCSCCC(NC1=CC(=O)CC(C)(C)C1)C(=O)O (centres undefined) | -0.215
95 | CNc1cnn(-c2ccccc2)c(=O)c1Cl | -0.78
96 | CCCCC(NC(C)=O)c1nc2ccccc2n1CCC (centres undefined) | -0.147
97 | COc1ccc(C(=O)N2CCC(N3CCN(c4ccccc4)CC3)CC2)cc1 | -0.292
98 | C(=N\n1cnc2ccccc21)/c1cccnc1 | -0.0941
99 | Clc1ccc(C2Nc3ccccc3-n3cccc32)cc1 (centres undefined) | 1.16
100 | CCNC(=O)C(C)Sc1ccc(Cl)cc1 (centres undefined) | -0.148
101 | COc1ccc2nc3sc(C(=O)NCCCN4CCc5ccccc5C4)cc3cc2c1 | 0.283
102 | Cc1ccc(-c2nc(-c3cccnc3)no2)c(C)c1 | -0.00682
103 | Cc1c(NC(=O)COC(=O)c2cc(-c3ccc(-c4ccccc4)cc3)nc3ccccc23)c(=O)n(-c2ccccc2)n1C | -0.309
104 | Cc1cc(C)cc(NC(=S)NCCc2ccc(S(N)(=O)=O)cc2)c1 | 0.00822
105 | Cc1ccc(NS(=O)(=O)c2ccc(NC(=O)CSc3ccc(Cl)cc3)cc2)c(C)c1 | -0.0812
106 | O=C(O)CCCCCNC(=O)Nc1ccc2c(c1)OCCO2 | -0.258
107 | Cc1noc(C)c1C(=O)NC(C)C1CCCO1 (centres undefined) | -0.456
108 | CCCCC(=O)NCCc1cc2c(C)ccc(C)c2[nH]c1=O | -0.21
109 | O=C(COC(=O)c1ccccc1C(=O)c1ccc(Cl)cc1)NC(c1ccccc1)c1ccccc1 | -0.14
